# Laboratory results published in the supplement of paper PMC8728848.
# This is one part of the list.
# B1: PX14375F-bfa-539-21-539 (Bacteroides fragilis) (protein)
# chain: EDFLQKDPPSSPSQSVFWQKKSDFESALAGTYSVMYSGVFSQIMPCLDGLTDNAIVQHSEGTYGWAKTIAQGDLTPNQGGFVTDIYGNCYKGIARVHILMEQLDQYTGSDISADEKKFMLAQCKALRGYFYSWLYQCYKEVPVVTQSLDLNTMYQPKATRAEVLNRVMTDYDEAISELPDKLYSDSQTSGRFTVSAVKALKARILLFDAYDSNGKAISSKMEEVLTLLQSIKGYSLAARVRDNFISEKQLASPEIMFSVRFLRPNLTHSMDLYYGAWAVLDPTRNMVDAFECTDGKPWGESPLTVRPDESILYGNDDALKKAERAKMFMNRDRRLYESVNHSMMANFVDDGFKDEEVQVNESNNKGPTGFSALKYVQPTDVTPGYSTVSDADIVVLRYAHVLLMIAEAENEAHGATTTALNAINEVRTRSGQPAIEAGISQDDLRERIRNEWRIETCFEGLRYFQLKRWKLMDKRVNGVEDPAYPGYIKVYKPAFEFFPIPQSEIDKAGGVLKQDPAYE
# Tests used:
# Assay in all cases: glycan array binding signal (z-score within array); higher = stronger binding
# Conditions in all cases: glycan notation: IUPAC condensed, linker removed
# Glc(b1-6)Glc = target: Glc(b1-6)Glc
# Procedure, shortened: (§1)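 Glycan array binding is given as a within-array Z-score, which can be read as non-binding when negative. The arrays, 3228 of them, came from the Consortium for Functional Glycomics database and were retained only where the protein sequence was available. Z-scores were averaged across arrays of the same protein sequence at different concentrations or buffers and across linkers.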
# GlcA(b1-3)Gal = target: GlcA(b1-3)Gal
# Procedure, shortened: as §1
# GlcA(b1-3)GlcNAc = target: GlcA(b1-3)GlcNAc
# Procedure, shortened: as §1
# GlcA(b1-6)Gal = target: GlcA(b1-6)Gal
# Procedure, shortened: as §1
# [1] = target: GlcA3S(b1-3)Gal(b1-4)GlcNAc(b1-2)Man
# Procedure, shortened: as §1
# [2] = target: GlcA3S(b1-3)Gal(b1-4)GlcNAc(b1-3)Gal(b1-4)Glc
# Procedure, shortened: as §1
# [3] = target: GlcNAc(a1-3)Gal(b1-4)GlcNAc
# Procedure, shortened: as §1
# [4] = target: GlcNAc(a1-4)Gal(b1-3)GlcNAc
# Procedure, shortened: as §1
# [5] = target: GlcNAc(a1-4)Gal(b1-4)GalNAc
# Procedure, shortened: as §1
# [6] = target: GlcNAc(a1-4)Gal(b1-4)GlcNAc
# Procedure, shortened: as §1
# [7] = target: GlcNAc(a1-4)Gal(b1-4)GlcNAc(b1-3)Gal(b1-4)Glc
# Procedure, shortened: as §1
# [8] = target: GlcNAc(a1-4)Gal(b1-4)GlcNAc(b1-3)Gal(b1-4)GlcNAc
# Procedure, shortened: as §1
# [9] = target: GlcNAc(a1-4)Gal(b1-4)GlcNAc(b1-3)Gal(b1-4)GlcNAc(b1-3)Gal(b1-4)GlcNAc
# Procedure, shortened: as §1
# [10] = target: GlcNAc(a1-4)Gal(b1-4)GlcNAc(b1-3)Gal(b1-4)[Fuc(a1-3)]GlcNAc(b1-3)Gal(b1-4)[Fuc(a1-3)]GlcNAc
# Procedure, shortened: as §1
# [11] = target: GlcNAc(a1-6)Gal(b1-4)GlcNAc
# Procedure, shortened: as §1
# [12] = target: GlcNAc(b1-2)Gal(b1-3)GalNAc
# Procedure, shortened: as §1
# [13] = target: GlcNAc(b1-2)Man(a1-3)[GlcNAc(b1-2)Man(a1-6)]Man(b1-4)GlcNAc(b1-4)GlcNAc
# Procedure, shortened: as §1
# [14] = target: GlcNAc(b1-2)Man(a1-3)[GlcNAc(b1-2)Man(a1-6)]Man(b1-4)GlcNAc(b1-4)[Fuc(a1-6)]GlcNAc
# Procedure, shortened: as §1
# [15] = target: GlcNAc(b1-2)Man(a1-3)[GlcNAc(b1-4)][GlcNAc(b1-2)Man(a1-6)]Man(b1-4)GlcNAc(b1-4)GlcNAc
# Procedure, shortened: as §1
# [16] = target: GlcNAc(b1-2)Man(a1-3)[GlcNAc(b1-4)][GlcNAc(b1-2)Man(a1-6)]Man(b1-4)GlcNAc(b1-4)[Fuc(a1-6)]GlcNAc
# Procedure, shortened: as §1
# [17] = target: GlcNAc(b1-2)[GlcNAc(b1-4)]Man(a1-3)[GlcNAc(b1-2)Man(a1-6)]Man(b1-4)GlcNAc(b1-4)GlcNAc
# Procedure, shortened: as §1
# [18] = target: GlcNAc(b1-2)[GlcNAc(b1-4)]Man(a1-3)[GlcNAc(b1-4)][GlcNAc(b1-2)Man(a1-6)]Man(b1-4)GlcNAc(b1-4)GlcNAc
# Procedure, shortened: as §1
# [19] = target: GlcNAc(b1-2)[GlcNAc(b1-4)]Man(a1-3)[GlcNAc(b1-4)][GlcNAc(b1-2)[GlcNAc(b1-6)]Man(a1-6)]Man(b1-4)GlcNAc(b1-4)GlcNAc
# Procedure, shortened: as §1
# [20] = target: GlcNAc(b1-2)[GlcNAc(b1-4)]Man(a1-3)[GlcNAc(b1-4)][GlcNAc(b1-2)[GlcNAc(b1-6)]Man(a1-6)]Man(b1-4)GlcNAc(b1-4)[Fuc(a1-6)]GlcNAc
# Procedure, shortened: as §1
# [21] = target: GlcNAc(b1-2)[GlcNAc(b1-6)]Man(a1-6)[GlcNAc(b1-2)Man(a1-3)]Man(b1-4)GlcNAc(b1-4)GlcNAc
# Procedure, shortened: as §1
# [22] = target: GlcNAc(b1-2)[GlcNAc(b1-6)]Man(a1-6)[GlcNAc(b1-2)Man(a1-3)]Man(b1-4)GlcNAc(b1-4)[Fuc(a1-6)]GlcNAc
# Procedure, shortened: as §1
# [23] = target: GlcNAc(b1-2)[GlcNAc(b1-6)]Man(a1-6)[GlcNAc(b1-4)][GlcNAc(b1-2)Man(a1-3)]Man(b1-4)GlcNAc(b1-4)GlcNAc
# Procedure, shortened: as §1
# GlcNAc(b1-3)Fuc = target: GlcNAc(b1-3)Fuc
# Procedure, shortened: as §1
# GlcNAc(b1-3)Gal = target: GlcNAc(b1-3)Gal
# Procedure, shortened: as §1
# [24] = target: GlcNAc(b1-3)Gal(b1-3)GalNAc
# Procedure, shortened: as §1
# GlcNAc(b1-3)Gal(b1-4)Glc = target: GlcNAc(b1-3)Gal(b1-4)Glc
# Procedure, shortened: as §1
# [25] = target: GlcNAc(b1-3)Gal(b1-4)GlcNAc
# Procedure, shortened: as §1
# [26] = target: GlcNAc(b1-3)Gal(b1-4)GlcNAc(b1-2)Man(a1-3)[GlcNAc(b1-3)Gal(b1-4)GlcNAc(b1-2)Man(a1-6)]Man(b1-4)GlcNAc(b1-4)GlcNAc
# Procedure, shortened: as §1
# [27] = target: GlcNAc(b1-3)Gal(b1-4)GlcNAc(b1-2)Man(a1-3)[GlcNAc(b1-3)Gal(b1-4)GlcNAc(b1-2)Man(a1-6)]Man(b1-4)GlcNAc(b1-4)[Fuc(a1-6)]GlcNAc
# Procedure, shortened: as §1
# [28] = target: GlcNAc(b1-3)Gal(b1-4)GlcNAc(b1-2)[GlcNAc(b1-3)Gal(b1-4)GlcNAc(b1-6)]Man(a1-6)[GlcNAc(b1-3)Gal(b1-4)GlcNAc(b1-2)Man(a1-3)]Man(b1-4)GlcNAc(b1-4)GlcNAc
# Procedure, shortened: as §1
# [29] = target: GlcNAc(b1-3)Gal(b1-4)GlcNAc(b1-3)Gal(b1-4)GlcNAc
# Procedure, shortened: as §1
# [30] = target: GlcNAc(b1-3)Gal(b1-4)GlcNAc(b1-3)Gal(b1-4)GlcNAc(b1-2)Man(a1-3)[GlcNAc(b1-3)Gal(b1-4)GlcNAc(b1-3)Gal(b1-4)GlcNAc(b1-2)Man(a1-6)]Man(b1-4)GlcNAc(b1-4)GlcNAc
# Procedure, shortened: as §1
binder,measurement,setting,value
B1,glycan array binding signal (z-score),Glc(b1-6)Glc,0.021
same,glycan array binding signal (z-score),GlcA(b1-3)Gal,-0.214
same,glycan array binding signal (z-score),GlcA(b1-3)GlcNAc,-0.113
same,glycan array binding signal (z-score),GlcA(b1-6)Gal,0.504
same,glycan array binding signal (z-score),[1],-0.346
same,glycan array binding signal (z-score),[2],1.49
same,glycan array binding signal (z-score),[3],0.187
same,glycan array binding signal (z-score),[4],0.204
same,glycan array binding signal (z-score),[5],-0.334
same,glycan array binding signal (z-score),[6],0.011
same,glycan array binding signal (z-score),[7],-0.394
same,glycan array binding signal (z-score),[8],-0.433
same,glycan array binding signal (z-score),[9],-0.081
same,glycan array binding signal (z-score),[10],0.867
same,glycan array binding signal (z-score),[11],1.9
same,glycan array binding signal (z-score),[12],0.055
same,glycan array binding signal (z-score),[13],0.266
same,glycan array binding signal (z-score),[14],-0.47
same,glycan array binding signal (z-score),[15],0.017
same,glycan array binding signal (z-score),[16],-0.471
same,glycan array binding signal (z-score),[17],-0.105
same,glycan array binding signal (z-score),[18],0.443
same,glycan array binding signal (z-score),[19],-0.063
same,glycan array binding signal (z-score),[20],-0.643
same,glycan array binding signal (z-score),[21],0.13
same,glycan array binding signal (z-score),[22],-0.427
same,glycan array binding signal (z-score),[23],0.044
same,glycan array binding signal (z-score),GlcNAc(b1-3)Fuc,-0.513
same,glycan array binding signal (z-score),GlcNAc(b1-3)Gal,-1.02
same,glycan array binding signal (z-score),[24],-0.429
same,glycan array binding signal (z-score),GlcNAc(b1-3)Gal(b1-4)Glc,0.207
same,glycan array binding signal (z-score),[25],-0.34
same,glycan array binding signal (z-score),[26],-0.631
same,glycan array binding signal (z-score),[27],-0.528
same,glycan array binding signal (z-score),[28],1.57
same,glycan array binding signal (z-score),[29],-0.132
same,glycan array binding signal (z-score),[30],0.005
